Data published in publication PMC9911399, “Two distinct binding modes provide the RNA-binding protein RbFox with extraordinary sequence specificity”.
Where a chain is given by its changes, count along the chain named. The list shows a part of the results.

T1: RBFOX1 RRM RbFoxmut (Fox-RRM*) (Homo sapiens, UniProt Q9NWB1 109-208, R118D;E147R;N151S;E152T)
T1 sequence: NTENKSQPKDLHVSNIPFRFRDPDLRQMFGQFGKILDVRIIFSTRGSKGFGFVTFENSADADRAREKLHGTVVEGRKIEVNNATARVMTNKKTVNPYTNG

B1: CCUUAUG (DNA:RNA)
RNA: GGGAGACCGGAAUUCAGAUUGUCCCCUUAUGUUAAAUCCCGUCGUAGCCACCA
DNA 1: CAATCTGAATTCCGGTCTCCC
DNA 2: TGGTGGCTACGACGGGATT
B2: AACAUGA (DNA:RNA)
RNA: GGGAGACCGGAAUUCAGAUUGUCCAACAUGAUUAAAUCCCGUCGUAGCCACCA
DNA 1: CAATCTGAATTCCGGTCTCCC
DNA 2: TGGTGGCTACGACGGGATT
B3: AGGAUGG (DNA:RNA)
RNA: B2 RNA with A26G, C27G, A31G
DNA 1: CAATCTGAATTCCGGTCTCCC
DNA 2: TGGTGGCTACGACGGGATT
B4: CAGUCAC (DNA:RNA)
RNA: B1 RNA with C26A, U27G, A29C, U30A, G31C
DNA 1: CAATCTGAATTCCGGTCTCCC
DNA 2: TGGTGGCTACGACGGGATT
B5: CUUGCUA (DNA:RNA)
RNA: B1 RNA with C26U, U28G, A29C, G31A
DNA 1: CAATCTGAATTCCGGTCTCCC
DNA 2: TGGTGGCTACGACGGGATT
B6: UAAUACU (DNA:RNA)
RNA: B1 RNA with C25U, C26A, U27A, U30C, G31U
DNA 1: CAATCTGAATTCCGGTCTCCC
DNA 2: TGGTGGCTACGACGGGATT
B7: AUUAGAU (DNA:RNA)
RNA: B2 RNA with A26U, C27U, U29G, G30A, A31U
DNA 1: CAATCTGAATTCCGGTCTCCC
DNA 2: TGGTGGCTACGACGGGATT
B8: GACAACG (DNA:RNA)
RNA: B2 RNA with A25G, U29A, G30C, A31G
DNA 1: CAATCTGAATTCCGGTCTCCC
DNA 2: TGGTGGCTACGACGGGATT
B9: AAGCUCG (DNA:RNA)
RNA: B2 RNA with C27G, A28C, G30C, A31G
DNA 1: CAATCTGAATTCCGGTCTCCC
DNA 2: TGGTGGCTACGACGGGATT
B10: GCGAUAA (DNA:RNA)
RNA: B2 RNA with A25G, A26C, C27G, G30A
DNA 1: CAATCTGAATTCCGGTCTCCC
DNA 2: TGGTGGCTACGACGGGATT
B11: ACGAUGC (DNA:RNA)
RNA: B2 RNA with A26C, C27G, A31C
DNA 1: CAATCTGAATTCCGGTCTCCC
DNA 2: TGGTGGCTACGACGGGATT
B12: CGAUUAU (DNA:RNA)
RNA: B1 RNA with C26G, U27A, A29U, U30A, G31U
DNA 1: CAATCTGAATTCCGGTCTCCC
DNA 2: TGGTGGCTACGACGGGATT
B13: UCGAGAU (DNA:RNA)
RNA: B2 RNA with A25U, A26C, C27G, U29G, G30A, A31U
DNA 1: CAATCTGAATTCCGGTCTCCC
DNA 2: TGGTGGCTACGACGGGATT
B14: UAAGGGG (DNA:RNA)
RNA: B2 RNA with A25U, C27A, A28G, U29G, A31G
DNA 1: CAATCTGAATTCCGGTCTCCC
DNA 2: TGGTGGCTACGACGGGATT
B15: CGUGGUU (DNA:RNA)
RNA: B1 RNA with C26G, U28G, A29G, G31U
DNA 1: CAATCTGAATTCCGGTCTCCC
DNA 2: TGGTGGCTACGACGGGATT
B16: UGCGGCU (DNA:RNA)
RNA: B2 RNA with A25U, A26G, A28G, U29G, G30C, A31U
DNA 1: CAATCTGAATTCCGGTCTCCC
DNA 2: TGGTGGCTACGACGGGATT
B17: CACACCU (DNA:RNA)
RNA: B2 RNA with A25C, U29C, G30C, A31U
DNA 1: CAATCTGAATTCCGGTCTCCC
DNA 2: TGGTGGCTACGACGGGATT
B18: GCGUCGG (DNA:RNA)
RNA: B1 RNA with C25G, U27G, A29C, U30G
DNA 1: CAATCTGAATTCCGGTCTCCC
DNA 2: TGGTGGCTACGACGGGATT
B19: UAGAGGG (DNA:RNA)
RNA: B2 RNA with A25U, C27G, U29G, A31G
DNA 1: CAATCTGAATTCCGGTCTCCC
DNA 2: TGGTGGCTACGACGGGATT
B20: CACUUGC (DNA:RNA)
RNA: B2 RNA with A25C, A28U, A31C
DNA 1: CAATCTGAATTCCGGTCTCCC
DNA 2: TGGTGGCTACGACGGGATT
B21: CUUUGCC (DNA:RNA)
RNA: B1 RNA with C26U, A29G, U30C, G31C
DNA 1: CAATCTGAATTCCGGTCTCCC
DNA 2: TGGTGGCTACGACGGGATT
B22: GCCCAGU (DNA:RNA)
RNA: B2 RNA with A25G, A26C, A28C, U29A, A31U
DNA 1: CAATCTGAATTCCGGTCTCCC
DNA 2: TGGTGGCTACGACGGGATT
B23: CUCCAGA (DNA:RNA)
RNA: B2 RNA with A25C, A26U, A28C, U29A
DNA 1: CAATCTGAATTCCGGTCTCCC
DNA 2: TGGTGGCTACGACGGGATT
B24: CAGUUCU (DNA:RNA)
RNA: B2 RNA with A25C, C27G, A28U, G30C, A31U
DNA 1: CAATCTGAATTCCGGTCTCCC
DNA 2: TGGTGGCTACGACGGGATT
B25: GCACCAG (DNA:RNA)
RNA: B1 RNA with C25G, U27A, U28C, A29C, U30A
DNA 1: CAATCTGAATTCCGGTCTCCC
DNA 2: TGGTGGCTACGACGGGATT
B26: GCCGAUG (DNA:RNA)
RNA: B1 RNA with C25G, U27C, U28G
DNA 1: CAATCTGAATTCCGGTCTCCC
DNA 2: TGGTGGCTACGACGGGATT
B27: CUUUAAA (DNA:RNA)
RNA: B1 RNA with C26U, U30A, G31A
DNA 1: CAATCTGAATTCCGGTCTCCC
DNA 2: TGGTGGCTACGACGGGATT
B28: AGGUUCU (DNA:RNA)
RNA: B2 RNA with A26G, C27G, A28U, G30C, A31U
DNA 1: CAATCTGAATTCCGGTCTCCC
DNA 2: TGGTGGCTACGACGGGATT
B29: CCCAGAA (DNA:RNA)
RNA: B2 RNA with A25C, A26C, U29G, G30A
DNA 1: CAATCTGAATTCCGGTCTCCC
DNA 2: TGGTGGCTACGACGGGATT
B30: ACCGUUU (DNA:RNA)
RNA: B2 RNA with A26C, A28G, G30U, A31U
DNA 1: CAATCTGAATTCCGGTCTCCC
DNA 2: TGGTGGCTACGACGGGATT
B31: CGAUGAU (DNA:RNA)
RNA: B1 RNA with C26G, U27A, A29G, U30A, G31U
DNA 1: CAATCTGAATTCCGGTCTCCC
DNA 2: TGGTGGCTACGACGGGATT

Target: T1, RBFOX1 RRM RbFoxmut (Fox-RRM*)
Experiment: EMSA; HiTS-Eq, 1 nM pool, 10 min; buffer printed only for the single-RNA assays: 10 mM Tris pH 7.5, 150 mM NaCl, 3.4 mM EDTA, 0.001% NP-40, 30 C
Settings: tags: His6 N-terminal (pET28a); label: 5' 32P
Summary of the method: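 Purified RbFox RRM (wild type or mutant) was equilibrated for 10 min in 50 µL with 1 nM of a 5′-radiolabelled pool of RNA with 7 randomized nucleotides, its flanks annealed to DNA oligonucleotides, across increasing protein concentrations. Free RNA was separated by 8% native PAGE, excised, reverse-transcribed, PCR-barcoded and sequenced on an Illumina HiSeq 2500. Relative association constants came from read-count changes of each variant against the control reaction, normalised to the cognate motif.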

Binder | binding signal
B1 | 0.119 KA relative to UGCAUGU
B2 | 0.0947 KA relative to UGCAUGU
B3 | 0.177 KA relative to UGCAUGU
B4 | 0.0858 KA relative to UGCAUGU
B5 | 0.137 KA relative to UGCAUGU
B6 | 0.103 KA relative to UGCAUGU
B7 | 0.0862 KA relative to UGCAUGU
B8 | 0.0294 KA relative to UGCAUGU
B9 | 0.141 KA relative to UGCAUGU
B10 | 0.0907 KA relative to UGCAUGU
B11 | 0.121 KA relative to UGCAUGU
B12 | 0.128 KA relative to UGCAUGU
B13 | 0.0742 KA relative to UGCAUGU
B14 | 0.05 KA relative to UGCAUGU
B15 | 0.14 KA relative to UGCAUGU
B16 | 0.124 KA relative to UGCAUGU

Binder | binding signal
B17 | 0.0833 KA relative to UGCAUGU
B18 | 0.0963 KA relative to UGCAUGU
B19 | 0.103 KA relative to UGCAUGU
B20 | 0.128 KA relative to UGCAUGU
B21 | 0.177 KA relative to UGCAUGU
B22 | 0.102 KA relative to UGCAUGU
B23 | 0.0911 KA relative to UGCAUGU
B24 | 0.0871 KA relative to UGCAUGU
B25 | 0.149 KA relative to UGCAUGU
B26 | 0.109 KA relative to UGCAUGU
B27 | 0.123 KA relative to UGCAUGU
B28 | 0.0939 KA relative to UGCAUGU
B29 | 0.0718 KA relative to UGCAUGU
B30 | 0.108 KA relative to UGCAUGU
B31 | 0.0689 KA relative to UGCAUGU
